Data taken from PubChem BioAssay AID588591 (National Center for Advancing Translational Sciences (NCATS), 2011).
Among all 390,000 compounds or so, about 4,700 (1.2%) were called active. This list was built around the results that the source calls inconclusive (neither active nor inactive); the mix of calls is not that of the screen. Calls come from the whole dose curve; as a rule, active = well fitted inhibition curve with a large enough effect; inconclusive = small, poorly fitted or top-dose-only effect, or another doubt; inactive = no such curve, though single readings can be large or run the other way. A potency beside an inconclusive call is a rough fit, not a confirmed value.

The compounds below were run against DNA polymerase eta (Homo sapiens) (UniProt Q9Y253) (assay: qHTS for Inhibitors of Polymerase Eta). Conditions: recombinant Pol eta, fluorescent DNA replication assay; series mostly up to 114 µM.
UniProt Q9Y253, sequence (Q9Y253 whole entry, looked up): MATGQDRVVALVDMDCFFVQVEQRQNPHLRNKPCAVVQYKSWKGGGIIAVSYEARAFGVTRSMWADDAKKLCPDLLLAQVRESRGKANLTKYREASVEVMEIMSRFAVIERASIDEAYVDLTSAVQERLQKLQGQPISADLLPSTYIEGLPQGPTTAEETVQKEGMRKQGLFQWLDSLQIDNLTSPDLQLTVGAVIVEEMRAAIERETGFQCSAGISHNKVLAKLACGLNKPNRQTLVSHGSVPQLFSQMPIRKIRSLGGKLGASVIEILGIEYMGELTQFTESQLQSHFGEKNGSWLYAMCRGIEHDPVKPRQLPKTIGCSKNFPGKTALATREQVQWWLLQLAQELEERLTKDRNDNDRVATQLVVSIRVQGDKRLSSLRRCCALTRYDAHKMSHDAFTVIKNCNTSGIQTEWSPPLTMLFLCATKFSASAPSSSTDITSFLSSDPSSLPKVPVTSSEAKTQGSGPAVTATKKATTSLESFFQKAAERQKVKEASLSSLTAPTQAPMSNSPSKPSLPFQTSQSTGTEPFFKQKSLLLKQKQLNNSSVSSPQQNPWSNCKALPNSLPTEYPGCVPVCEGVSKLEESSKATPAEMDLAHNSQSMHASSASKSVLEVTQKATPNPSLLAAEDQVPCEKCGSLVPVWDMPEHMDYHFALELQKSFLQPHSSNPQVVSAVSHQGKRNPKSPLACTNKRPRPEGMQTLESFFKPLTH
In short: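 Pol eta (10 nM) was preincubated with compounds for 15 min at room temperature, after which fluorescent replication substrate (50 nM final) was added to start the reaction. Fluorescence was read kinetically at 0 and 10 min.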
Potency is the fitted concentration of half-maximal effect; tags give direction and shape of the fitted curve.

| SMILES | Potency |
| --- | --- |
| CC(C)(C)OC(=O)N1CCC(c2c(C(=O)NC3CCCCC3)cnn2-c2cccc(F)c2)CC1 | inactive |
| CC1(C)CC(=O)C2=C(C1)NC1=C(C(=O)c3ccccc31)C2c1ccccc1 (centres undefined) | inconclusive: 56.2 µM [inhibitor, partial curve, poor fit] |
| CCCc1ccc(OCC(O)CN2CCc3ccccc3C2)cc1 (centres undefined) | inconclusive: 79.4 µM [inhibitor, partial curve, poor fit] |
| CC(OC(=O)c1cccc(-n2cnnn2)c1)c1nc2ccccc2c(=O)[nH]1 (centres undefined) | inactive |
| CN(Cc1ccco1)C(=O)C1CCCN(c2ncnc3c2nc2n3CCCCC2)C1 (centres undefined) | inactive |
| COc1ccc2c3c([nH]c2c1)[C@H]1C[C@H]2[C@H](C[C@@H](O)[C@H](OC)[C@H]2C(=O)O)CN1CC3 | inconclusive: 100 µM [inhibitor, single point] |
| NC(=O)C(CC(=O)O)NC(=O)[C@@H]1CCCNc2c(I)cc([N+](=O)[O-])cc2C(=O)N[C@@H](CO)C(=O)N[C@@H](Cc2ccc(O)cc2)C(=O)N1 (some centres undefined) | active: 15.8 µM |
| CC(=O)c1c(CC(=O)O)[nH]n(-c2nc3ccccc3s2)c1=O | active: 50.1 µM |
| COc1cccc(/C=N\Nc2nncc(-c3ccccc3)n2)c1 | inconclusive: 35.5 µM [inhibitor, partial curve, poor fit] |
| COc1ccc(C(NC(=O)/C=C\c2ccco2)c2ccc(OC)c(OC)c2)cc1 (centres undefined) | inconclusive: 89.1 µM [inhibitor, single point] |
| CCOc1ccccc1N1CCN(C(=O)c2cc3c(s2)CCC3)CC1 | inconclusive: 39.8 µM [inhibitor, single point] |
| CSc1nsc(SCC(=O)Nc2ccc(C(C)=O)cc2)n1 | inactive |
| CCOc1ccc(OCC)c(NC(=O)CSc2nc3cccnc3n2C)c1 | inconclusive: 79.4 µM [inhibitor, partial curve, poor fit] |
| CCCCc1ccc(NC(=O)Cn2nnc3sc4c(c3c2=O)CCC(C)C4)cc1 (centres undefined) | inactive |
| CCOc1cccc(=O)c2c(C)n(C)c(C)c12 | inconclusive: 89.1 µM [inhibitor, single point] |
| O=C1N=c2ccccc2=C1c1sc(NS(=O)(=O)c2ccccc2)nc1O | inactive |
| Cn1c(N)c(C(=O)CSc2nc3ccccc3n2-c2ccccc2)c(=O)n(C)c1=O | inconclusive: 10 µM [inhibitor, partial curve, poor fit] |
| O=C(CSc1nc2ccccc2o1)Nc1nc2ccc(Br)cc2s1 | inconclusive: 39.8 µM [inhibitor, partial curve, poor fit] |
| CCc1c(C)sc(NC(=O)c2cccs2)c1C#N | inconclusive: 35.5 µM [inhibitor, partial curve, poor fit] |
| Cc1nn(-c2ccccc2)nc1C(=O)Oc1cc(C(F)(F)F)nn1-c1ccccc1 | inactive |
| COC(=O)c1ccc(NC(=O)c2cccc(NC(=O)c3ccccc3)c2)cc1 | inactive |
| COc1cc([N+](=O)[O-])cc(/C=N/NC(=O)c2ccc(C)nc2)c1O | inconclusive: 12.6 µM [inhibitor, full curve, poor fit] |

| SMILES | Potency |
| --- | --- |
| CCCC1c2ccsc2CCN1C(=S)NC (centres undefined) | inconclusive: 89.1 µM [inhibitor, partial curve, poor fit] |
| COc1cccc(/C=C(/C#N)c2nc3ccccc3[nH]2)c1OC(C)C(=O)O (centres undefined) | inactive |
| Cc1cc(-c2ccc(C)c(S(=O)(=O)NC(C)Cc3ccco3)c2)on1 (centres undefined) | inconclusive: 79.4 µM [inhibitor, partial curve, poor fit] |
| O=C(Nc1ccc(-c2nc3ccccc3s2)c(O)c1)C1=COCCO1 | inconclusive: 11.2 µM [inhibitor, full curve, poor fit] |
| O=C1CSc2ccc(S(=O)(=O)NCc3ccccc3Cl)cc2N1 | inconclusive: 79.4 µM [inhibitor, partial curve, poor fit] |
| CCOc1ccc(NC(=S)Nc2ccc3nsnc3c2)cc1 | active: 22.4 µM |
| Cn1ncc2c(NCc3ccc(Cl)cc3)ncnc21 | inactive |
| COc1ccc(CCNC(=O)c2cnc3ccc(C)cn3c2=O)cc1OC | inactive |
| O=C(Nc1nnc(-c2ccc(Cl)cc2)o1)Nc1ccccc1Cl | inactive |
| O=C(N/N=C/c1cccs1)c1cc(-c2ccncc2)nc2ccccc12 | inconclusive: 28.2 µM [inhibitor, single point] |
| CC(C)N(Cc1ccccc1)CC(O)COc1ccc(S(=O)(=O)N2CCOCC2)cc1Cl (centres undefined) | inconclusive: 89.1 µM [inhibitor, partial curve] |
| COc1ccccc1CCC(=O)OCC(=O)Nc1cc(C)nn1-c1ccccc1 | inconclusive: 0.0794 µM [inhibitor, full curve, poor fit] |
| Oc1cc2c(cc1O)[C@H]1c3ccc(O)c(O)c3OC[C@@]1(O)C2 | active: 14.1 µM |
| Cc1ccc(S(=O)(=O)N2[C@@H](c3cccc(Cl)c3)C(C(=O)O)=CC[C@H]2c2ccc(Cl)c(Cl)c2)cc1 | inconclusive: 89.1 µM [inhibitor, single point] |
| O=C(NN1C(=O)CSC1=S)C(=O)NN1C(=O)CSC1=S | active: 28.2 µM |
| COCCCNC(=O)c1c(N)n(-c2cccc(S(N)(=O)=O)c2)c2nc3ccccc3nc12 | inconclusive: 39.8 µM [inhibitor, single point] |
| COC(=O)c1ccccc1-c1ccc(C(c2c(C)[nH][nH]c2=O)c2c(C)[nH][nH]c2=O)o1 | inconclusive: 100 µM [inhibitor, single point] |
| CC(=O)Nc1ccc(SCC(=O)NC(=O)c2ccccc2Br)cc1 | inconclusive: 89.1 µM [inhibitor, single point] |
| Cc1c(C(=O)Nc2cccc(F)c2)oc2c1-c1nn(Cc3c(F)cccc3Cl)cc1CC2 | active: 89.1 µM |
| COc1ccc(N/C=C2/CCCCC2=O)cc1 | inconclusive: 25.1 µM [inhibitor, single point] |
| Cc1cc(C)cc(-n2c3nc4ccccc4nc3c3c(=O)n(Cc4ccco4)cnc32)c1 | inconclusive: 39.8 µM [inhibitor, single point] |
| COCCNC(=O)C1CCC(CNS(=O)(=O)c2ccc3c(c2)CC(C)N3C(C)=O)CC1 (centres undefined) | inactive |

| SMILES | Potency |
| --- | --- |
| COc1ccc(NS(=O)(=O)c2cc(NC(=O)c3sccc3C)ccc2N2CCOCC2)cc1 | inconclusive: 79.4 µM [inhibitor, partial curve, poor fit] |
| O=C(CNC(=O)c1[nH]cnc1C(=O)NC(c1ccccc1)c1ccccc1)OCc1ccccc1 | inconclusive: 79.4 µM [inhibitor, partial curve, poor fit] |
| CN(c1ccccc1)S(=O)(=O)c1ccc(Cl)c(C(=O)OCC(=O)NCc2ccco2)c1 | active: 31.6 µM |
| COc1ccc2cc(S(=O)(=O)NC3CC(C)(C)NC(C)(C)C3)ccc2c1 | inactive |
| CC1(C)C(=O)Nc2ccccc2N1C(=O)COC(=O)c1cc(S(=O)(=O)N2CCOCC2)ccc1F | inconclusive: 56.2 µM [inhibitor, partial curve] |
| COc1ccc(S(=O)(=O)CC(=O)c2cc3cccc(C)c3oc2=O)cc1 | active: 50.1 µM |
| CN(C)C=Nc1ccc2nn(-c3ccccc3)nc2c1 | inconclusive: 14.1 µM [inhibitor, partial curve, poor fit] |
| O=C(CSc1nc(=O)n2cc(Cl)ccc2n1)NCCc1ccccc1 | active: 25.1 µM |
| Cc1noc(C)c1NC(=O)N(C)C[C@@H]1OCc2ccccc2-c2c(n(C)c3ccccc23)C(=O)N([C@H](C)CO)C[C@H]1C | inconclusive: 89.1 µM [inhibitor, partial curve, poor fit] |
| CC(=O)N1N=C(N)SC1c1ccc(Cl)c(Cl)c1 (centres undefined) | inactive |
| Cc1ccc(NS(=O)(=O)c2ccc(C)c(C(=O)Nc3ccc(S(=O)(=O)Nc4onc(C)c4C)cc3)c2)cc1 | inconclusive: 8.91 µM [inhibitor, partial curve, poor fit] |
| Cc1nn(-c2ccccc2)c(C)c1/C=C/C(=O)OCC(=O)Nc1ncc(Cl)cc1Cl | inconclusive: 20 µM [inhibitor, full curve, poor fit] |
| CCOc1ccc(Cc2nnc(SCC(=O)Nc3ccc(C(C)=O)cc3)[nH]c2=O)cc1 | inconclusive: 31.6 µM [inhibitor, single point] |
| COc1ccc(S(=O)(=O)Nc2ccccc2C(=O)Nc2nc(-c3ccc(F)cc3)cs2)cc1OC | inconclusive: 79.4 µM [inhibitor, partial curve] |
| COc1ccc([N+](=O)[O-])cc1COc1ccc2c(-c3ccccc3)cc(=O)oc2c1 | inconclusive: 89.1 µM [inhibitor, partial curve, poor fit] |
| O=C(CSc1nc2c(c(=O)n1-c1ccc(Cl)cc1)SCC2)NCc1ccco1 | inconclusive: 39.8 µM [inhibitor, partial curve] |
| Nc1ccc(-c2nc3ccc(C(=O)O)cc3s2)cc1 | inconclusive: 20 µM [inhibitor, full curve, poor fit] |
| CCOC(=O)c1c(NC(=O)CN2C(=O)NC3(CCCCC3C)C2=O)sc(C)c1CC (centres undefined) | inconclusive: 89.1 µM [inhibitor, partial curve, poor fit] |
| Cc1ccc(OCC(=O)Nc2nnc(S(=O)(=O)N3CCC(C)CC3)s2)cc1 | inconclusive: 44.7 µM [inhibitor, partial curve] |
| CCCCSCCCNC(=O)c1cn(CC)c2ccc(S(=O)(=O)N(C)C3CCCCC3)cc2c1=O | inconclusive: 56.2 µM [inhibitor, partial curve, poor fit] |
